Results from patent publication US20250320290A1, “METHODS FOR TRIGGERING SAFETY KILLING […] USING A CD47-SIRPalpha BLOCKADE AGENT” (Sana Biotechnology, Inc., priority 2020, published 2025).

Columns and labels:
[1] = system: human HIP iPSCs; experiment: Subcutaneous human HIP iPSCs in NSG mice with adoptive transfer of human NK cells, BLI; format: in vivo; conditions: fusion protein local 1 mg D0, D1, D3; re-injection of iPSCs D20 and D40 followed by injections for 3 days
Method: Subcutaneous. Healthy male NSG mice were anesthetized via isoflurane inhalation anesthesia in a knockdown chamber. The anesthetized mice were removed from the chamber and placed in a supine position. The injection site (right inguinal area) was sprayed with 70% EtOH. Cells were injected subcutaneously proximal to the inguinal region.
(§1) The mice were then positioned in a nose cone in the bioluminescence chamber (anesthesia was maintained at 1.5% with 500 ml oxygen/min). The mice were imaged for 180 seconds. A circle was drawn around the region of interest (ROI) giving a reading of photons/sec of emitted light.
(§2) IP dosing. The antibody (100 μl) was injected into the peritoneal cavity from the ventral surface by piercing the skin and muscle layers.
SC dosing. Mice were anesthetized via isoflurane inhalation anesthesia and placed in a supine position. The injection site (right inguinal area) was sprayed with 70% EtOH and the antibody (100 μl) was injected into the area of the implanted cells.

[2] = system: HIP CAR T cells / Nalm-6 tumor; experiment: Nalm6 tumor model in NSG mice with human NK cells and HIP CAR-T cells with or without fusion protein; format: in vivo; conditions: for tumor growth: HIP CAR T cells plus fusion protein; for killing of HIP CAR T cells: fusion protein intravenously
Method: NSG mice were studied using a Nalm6 tumor model. Adoptive transfer of human NK cells and human HIP CAR-T cells was performed intravenously with and without fusion protein intravenously. 100U/ml IL-2 was thawed overnight before sorting, followed by 100U/ml IL-2 overnight after sorting and before injection (FIG. 30). When HIP CARs were eliminated by a safety strategy, Nalm-6 tumor grew (FIG. 31).

[3] = system: human HIP iPSCs in the brain; experiment: Intracranial human HIP iPSCs in NSG mice with adoptive transfer of human NK cells and human microglia; format: in vivo
Method: Brain. 24 to 48 hours prior to scheduled surgery, animals were provided with MediGel (Clear H2O, Portland, ME) with carprofen (5 mg/Kg/day). The amount calculated was based on standard intake. To each cup of MediGel (sucralose), 1.5 mg of carprofen was added. Alternatively, buprenorphine (0.05-0.1 mg/Kg IM or IP) BID every 12 hours for three days or Buprenorphine SR (0.5-1.0 mg/Kg SC) was administered once prior to the start of surgery. Buprenorphine SR or buprenorphine was not used post-operatively in conjunction with MediGel.
On surgery day, animals were anesthetized and maintained via isoflurane inhalation (3% and 1.5%, respectively). The top of the head was shaved and scrubbed with chlorhexidine and wiped with 70% EtOH. The animal was placed on a stereotaxic device. An incision was made midline through the scalp long enough to easily expose midline suture from bregma to lambda.
At pre-determined coordinates (as identified by the Allen Brain Atlas or George Paxinos' Mouse Brain Atlas), the cranium was drilled through without penetrating the dura. A micro-drill was exchanged for a micro-infusion pump with a Hamilton syringe and needle. The needly was “dropped” to the depth required to reach the target area of the brain and injectate (differentiated stem cells in 1 μl-5 μl saline) was infused. The incision was closed with absorbable suture and mouse recovered on a warming pad. Animals were maintained on MediGel (sucralose gel with carprofen) for 3 days.
as §1, §2

[4] = system: CD19 HIP CAR; experiment: In vitro Xcelligence killing of CD19 HIP CAR T cells by NK cells or macrophages with fusion proteins; format: cell-based, human; conditions: NK cells, macrophages
Method: In vitro read-out was performed with Xcelligence.

[5] = system: human HIP iPSCs; experiment: In vitro killing of HIP cells with SIRPαFc fusion proteins (NK, ADCC NK, CDC, macrophage, ADCC macrophage); format: cell-based; conditions: macrophages
Description: SIRPαFc fusion proteins were studied in vitro for their effects on human iPSCs. Effects on HIP CD19CAR-T cells were studied with respect to killing mediated by NK cells, ADCC NK cells, and CDC (FIG. 18A). Effects on HIP cells with SIRPα IgG1Fc were studied with respect to killing mediated by NK cells, ADCC NK cells, and CDC (FIG. 18B). Effects on HIP cells with SIRPα IgG4Fc (including a dKO killing control) were studied with respect to killing mediated by NK cells, ADCC NK cells, and CDC (FIG. 18C). Effects on HIP cells were studied with respect to killing mediated by macrophages and ADCC macrophages (FIG. 18D). Effects on HIP cells with SIRPα IgG1Fc were studied with respect to killing mediated by macrophages and ADCC macrophages (FIG. 18E). Effects on HIP cells with SIRPα IgG4Fc (including a dKO killing control) were studied with respect to killing mediated by macrophages and ADCC macrophages (FIG. 18F).

[6] = local (intracranial) 1 mg D0, D1, D3

B1: SIRPα IgG4Fc: SIRPαFc fusion protein with IgG4 Fc; mediates killing by blocking of CD47 (protein)
chain: [about 120 residues omitted]KPSAPVVSGPAARATPQHTVSFTCESHGFSPRDITLKWFKNGNELSDFQTNVDPVGESVSYSIHSTAKVVLTREDVHSQVICEVAHVTLQGDPLRGTANLSETIRVPPTLEVTQQPVRAENQVNVTCQVRKFYPQRLQLTWLENGNVSRTETASTVTENKDGTYNWMSWLLVNVSAHRDDVKLTCQVEHDGQPAVSKSHDLKVSAHPKEQGSNTAAENTGSNERNIY
modifications: left off: a dimerising Fc or GST
- effect on HIP iPSCs [1]: CD47 blocking
- tumor growth [2]: comparable to mock transfected T cell group
- killing of HIP CAR T cells [2]: killing of HIP CAR T cells
- mice with killing of HIP iPSCs in the brain [3, 6]: 1 out of 5
- CD47 blocking in vitro [4]: CD47 blocking
- mechanism of killing of HIP cells [5]: mediate killing by blocking of CD47

B2: SIRPα IgG1Fc: SIRPαFc fusion protein with IgG1 Fc; blocks CD47 and induces CDC and ADCC (protein)
chain: [about 120 residues omitted]KPSAPVVSGPAARATPQHTVSFTCESHGFSPRDITLKWFKNGNELSDFQTNVDPVGESVSYSIHSTAKVVLTREDVHSQVICEVAHVTLQGDPLRGTANLSETIRVPPTLEVTQQPVRAENQVNVTCQVRKFYPQRLQLTWLENGNVSRTETASTVTENKDGTYNWMSWLLVNVSAHRDDVKLTCQVEHDGQPAVSKSHDLKVSAHPKEQGSNTAAENTGSNERNIY
modifications: left off: a dimerising Fc or GST
- effect on HIP iPSCs [1]: killing of HIP iPSCs repeatedly in all mice
- tumor growth [2]: comparable to mock transfected T cell group
- killing of HIP CAR T cells [2]: killing of HIP CAR T cells
- efficiency of intraperitoneal application ([3]; compared to local administration): less efficient compared to local administration
- mice with killing of HIP iPSCs in the brain ([3]; intraperitoneal 1 mg D0, D1, D3, blood brain barrier broken by mannitol): 1 out of 5
- potency compared with SIRPα IgG4Fc ([3]; local 1 mg D0, D1, D3): more potent
- killing of HIP iPSCs in the brain [3, 6]: killing of HIP iPSCs in the brain
- CD47 blocking in vitro [4]: CD47 blocking
- mechanism of killing of HIP cells [5]: additionally induce CDC and ADCC
